The other results are listed elsewhere or left out.
T1: UNK ZnF1-3 (human, UniProt Q9C0B0 31-174)
T1 sequence: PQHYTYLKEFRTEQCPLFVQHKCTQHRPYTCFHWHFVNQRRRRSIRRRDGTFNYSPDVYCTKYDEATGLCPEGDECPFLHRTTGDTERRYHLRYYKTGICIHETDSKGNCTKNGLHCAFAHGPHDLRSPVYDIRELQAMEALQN

B1: chr9:42776281:42776282:-_ENSMUSG00000059495_ENSMUST00000165665|mus_mus|FALSE|FALSE (ssRNA)
RNA: GGGAGUUCUACAGUCCGACGAUCAAACCUCCUCAAGUCUGCAACUCUCCCACCCACCCCCCAUAGCACCCCCACCACCACUAAGCAUUCCAUUCCUUUGUUCCUAUUUCCUGCUCACUCUGCAGGGAAUAUUUCAUACAAGUGCAACAGAGGAUUGAGCAUCA
B2: 21971185_22002819_1936_CDS_ENSG00000078403_ENST00000307729|human|control|control (ssRNA)
RNA: GGGAGUUCUACAGUCCGACGAUCUUGUUGCAAAUGCCCAGAAGACUGCUGAGGUAAGUGAGAGCUGGAGACAGGAGUACUAGAUCCCGAGCCAGAUACUACAUUUGGAAACGAUACUGCUACAUCAUUGCUGUUAUAAAUACCCAACAGAGGAUUGAGCAUCA
B3: 117817058_117819199_2538_CDS_ENSMUSG00000033326_ENSMUST00000106406|mouse|control|control (ssRNA)
RNA: GGGAGUUCUACAGUCCGACGAUCUGCCACUGCACAUGAAACAUGAACCCAUCUGUCGUCAUUGGCUCUCUGCAGGGCCCCUCCACGCAACGAGCAUAAGCAGCAGUCUUCCUCCAGGGCAUUGGCUGAACAUCGAGAGCACAUCAACAGAGGAUUGAGCAUCA
B4: 120681885_120682005_713_CDS_ENSMUSG00000025153_ENSMUST00000055655|mouse|control|control (ssRNA)
RNA: GGGAGUUCUACAGUCCGACGAUCCAUGCCCAGCUUCAUGAACUGCACAGAGGUGUUCGGCUUCAGGAGCAGGUUGAUCCCACCCACAAGGGCCGCGGGGCAUUCCCCACUACGGAUGGCCUGGUAGGCAUUCUGUAGUGCCAGCAACAGAGGAUUGAGCAUCA
B5: chr15:93570553:93570554:+_ENSG00000173575_ENST00000394196|hu_mus|FALSE|FALSE (ssRNA)
RNA: GGGAGUUCUACAGUCCGACGAUCUCGUUUUCUAGGGCCACAGUGCAUCAUAGGACUUCAGGACUUGACAACAUUCACACAUAACUUCCUCCAAGUCCUGCCACUUCCUCAAUGAUGAGCAGCUGCCCAAAGCCAGGCCCCACACAACAGAGGAUUGAGCAUCA
B6: chr11:121178941:121178942:+_ENSG00000109929_ENST00000392789|hu_hu|motif|central (ssRNA)
RNA: GGGAGUUCUACAGUCCGACGAUCACAUAUUUUUACUCUUAUUAAAUAAUGGUUUUAAAUAAUAAUCAUCACAAUGUUUAGCGGCAUAAUCCCAGAUCUGGAUUAAAUCAUGGUGAUAUCGAUAUUUUUAAAUUCCAAUUUAUUCAACAGAGGAUUGAGCAUCA
B7: chr19:55172049:55172050:-_ENSMUSG00000024978_ENSMUST00000061856|mus_mus|motif|central (ssRNA)
RNA: GGGAGUUCUACAGUCCGACGAUCGGUGUGUUUACAUCGGCCAAGGCUGUAUUCCGAUGAACUGGGCAGAUAAGAAACGUCGGUUGUGCCAACUGUCACUGAAGACUCCUCCAUGGCAGAACGUGCAAGUCCCAAACCAUGUGCCAACAGAGGAUUGAGCAUCA
B8: 80042564_80042684_1340_CDS_ENSMUSG00000042428_ENSMUST00000044970|mouse|control|control (ssRNA)
RNA: GGGAGUUCUACAGUCCGACGAUCGAAGCACCAGGAGCAAUGCCAGCCCGCGAAGUGCAGGGGGCUGCCGAGAGACCACUGCACUAGGAUGUGGCCGGUGCGGUUCUCAUACUGCCGGAAGUUGGGCAUGGUGUAGUACUGGCGCAACAGAGGAUUGAGCAUCA
B9: chr8:9988343:9988344:+_ENSMUSG00000040396_ENSMUST00000048216|mus_hu|FALSE|FALSE (ssRNA)
RNA: GGGAGUUCUACAGUCCGACGAUCAGUUUUUGCCAUUUCUUCAGGAGAAUGGCUCUUUACGACUUCUUUGAUGAACUGUUCAAGUGCAGUGAAAUAGCCUUGGCACUGCCAUGUGUCAUUGUGAGUCCCAUCUGGAAAAAUGGCCAACAGAGGAUUGAGCAUCA
B10: 74476496_74476616_631_3pUTR_ENSMUSG00000021577_ENSMUST00000022062|mouse|control|control (ssRNA)
RNA: GGGAGUUCUACAGUCCGACGAUCUUCCAUACAACGUGUGUAAGAGUGAGUGGCCUGUCCGAUCAGCCACACAGCAACACCGAUGAGCCUGCCCGCCUUUCCCAAACUUGAGGCUCUGUCCACCAAAUGCACGCUGAUAAAUCUCAACAGAGGAUUGAGCAUCA
B11: 94664804_94666374_605_3pUTR_ENSMUSG00000038902_ENSMUST00000107270|mouse|control|control (ssRNA)
RNA: GGGAGUUCUACAGUCCGACGAUCGUACAGGCCGAACAUUCCUUACAGGAAAUCCCUGGGUAGUGAUGAAGAUAGGUUGUGAGGCCACAGGGGAGCUAGUCACAUGAUUGGCAUUCUGCAUGACCUGGACAGGUCUCAAUACUGCAACAGAGGAUUGAGCAUCA
B12: chr11:4040516:4040517:+_ENSMUSG00000003581_ENSMUST00000003677|mus_hu|motif|central (ssRNA)
RNA: GGGAGUUCUACAGUCCGACGAUCCUGAGGACCGGGGUGCAGGCAGGAAGGGUCCAUCCCCAUGUGCAGAGUCCAGCUGGGCAGCGGAUCAUCGGAGUAGCGGUUCCCCAGGACGUUGAAUUUGCACAGUGGGCAGGUCUGCUGCAACAGAGGAUUGAGCAUCA
B13: 193332704_193332824_519_CDS_ENSG00000198836_ENST00000392438|human|control|control (ssRNA)
RNA: GGGAGUUCUACAGUCCGACGAUCGGCUGUGUAGCCACCCCCAACAGCCGAUCCUAGUAUGAGAUAGCGAAGUUUUAAGAGUCUCGUAGCUAAUCUUGCUGGCCAAAAAUUCCUGCGAGGCUGGUAGCCAUAUUUAAUUGGAGACAACAGAGGAUUGAGCAUCA
B14: chr11:97639285:97639286:-_ENSMUSG00000071415_ENSMUST00000103146|mus_hu|FALSE|FALSE (ssRNA)
RNA: GGGAGUUCUACAGUCCGACGAUCAGCAAUUGGAAGAUGCUGAAAGUCUGCAAACUCACAAAAAAGCAAGGAUUGCUUUAAAAAAAAAAUGCCCAGAGUUUCCAUUUCAGAAAAGUGAUGGUCAGGGUAUGUCAAAAACACUGUCAACAGAGGAUUGAGCAUCA
B15: chr1:163117127:163117128:-_ENSG00000143248_ENST00000313961|hu_mus|hu_hu_hu_mus_False|18_58 (ssRNA)
RNA: GGGAGUUCUACAGUCCGACGAUCUGCUACAAAGGAUGUAACUCAACUCACAGGGCAACUUUUGGAAGCCUGACCAGAUUACUACUUGAUUAGCUCCUUAUAAAAUUCAGAGCGCACAAAGCGAGGCAGAGAAUCCUUCUCCAUCAACAGAGGAUUGAGCAUCA
B16: chr6:40197388:40197389:+_ENSMUSG00000057716_ENSMUST00000061740|mus_mus|mus_mus_mus_hu_False|58_78 (ssRNA)
RNA: GGGAGUUCUACAGUCCGACGAUCGAGACACUGGGGUGGAUUUAUUCCACCUCUGUUUGCUAGCCUCCCACUAAGACAGCUAUUUUGGGAUUCAUGGCCUUGAAUAUCAAGAGGGAAAGGAAGAGGAUGGAAAGAGUCAAGAGUCAACAGAGGAUUGAGCAUCA
B17: chr7:65705475:65705476:+_ENSG00000169902_ENST00000304842|hu_hu|FALSE|FALSE (ssRNA)
RNA: GGGAGUUCUACAGUCCGACGAUCUCUAUCCGGUGAUGGCAUUCCAUGGCAUGCUGGCCCAGGUAAAACACAGUCACAGAACUAAUCACCAGACAUGCCAAUAGUAAGUUCUGCUUCAGCUUUCCAACCAUCUUGAUGUGGUUACAACAGAGGAUUGAGCAUCA
B18: chr7:141438946:141438947:+_ENSG00000106028_ENST00000265304|hu_mus|hu_hu_hu_mus_True|1_58 (ssRNA)
RNA: GGGAGUUCUACAGUCCGACGAUCGACGAAAUACCUGUAACACAGGUCUUCGAAACAUGGCUUCUGUUUUUCUUACAGUCUAAUCUUUAGGCUUUUCCUAAAGGAAAGAAAGAAAAGAGAAAAAUGAUAAAUCAAGAACUUCCGCAACAGAGGAUUGAGCAUCA
B19: chr1:39494564:39494565:+_ENSG00000168653_ENST00000372967|hu_hu|hu_hu_hu_mus_True|28_88 (ssRNA)
RNA: GGGAGUUCUACAGUCCGACGAUCAUGCAUUCGCCUCAUCGUUUUGUGCCGAAGCAAGCACUCUUCGAAGUCAUCGAACUCUAUCUUGCACUCCUUUUUCGCCCGGGUAUAACCGAUCCCGUGUGCACACUCUAUCCACUCUUUCAACAGAGGAUUGAGCAUCA
B20: 76112177_76112297_1045_CDS_ENSG00000091073_ENST00000430490|human|control|control (ssRNA)
RNA: GGGAGUUCUACAGUCCGACGAUCGUACGGUGCAAAGGCCUGGUGGGUCCCAAACACAGAAGCGGUCCUGUGUGGGGGGUGCUGGGGGACGGGGUAUGCAGGGAGGUUGGUCAUGGAGUGGCGGUAGCGGCCUGACACGGGGCCCAACAGAGGAUUGAGCAUCA
B21: chr5:130458811:130458812:+_ENSMUSG00000066735_ENSMUST00000051758|mus_mus|FALSE|FALSE (ssRNA)
RNA: GGGAGUUCUACAGUCCGACGAUCUACUUUCUUCACUAUGUAUCAGUCACGAUGAGCUGACAAUUCCUUUCUACACUUCAACUAAACUGUACAGUAAGUUCUGCAGGGGUGGAUCCCAAUGUUUCUACCUUUAUUUACAAAUAUCAACAGAGGAUUGAGCAUCA
B22: chr16:32019706:32019707:-_ENSMUSG00000022781_ENSMUST00000023467|mus_hu|FALSE|FALSE (ssRNA)
RNA: GGGAGUUCUACAGUCCGACGAUCCUUCAGGUCAAGUUCUGAACUAAAAUAUUACAUGUAACAACAGCUGGUCCUAACUUUUAUACAAAGUGAAACUAUAUAGAGCUCCUUUGCCAACAUAAGGAGCUACAUAAUUUCUAUUACCAACAGAGGAUUGAGCAUCA

biological target: T1, UNK ZnF1-3; experiment: nsRBNS (natural sequence RNA bind-n-seq); RBNS binding buffer (assumed for nsRBNS): 25 mM Tris pH 7.5, 150 mM KCl, 3 mM MgCl2, 0.01% Triton X-100, 500 ug/ml BSA, 20 U/ml SUPERase-In, 4 C; UNK is unkempt and MSI1 is Musashi-1; names of the RNAs are library labels; protein concentration not given here; high values mean tight binding

Binder	binding signal [enrichment R]
B1	0.778
B2	1.42
B3	1.17
B4	0.929
B5	0.79
B6	1.38
B7	1.02
B8	0.712
B9	0.599
B10	0.772
B11	1
B12	1.25
B13	0.977
B14	1.51
B15	1.11
B16	1.54
B17	0.347
B18	0.696
B19	0.701
B20	1.52
B21	0.941
B22	0.871

— PMC12136788
